# According to the BET-seq Pho4 binding data (Le et al. 2018):
# The other results are listed elsewhere or left out. These are noisy estimates, calculated here from bound and input reads.
# Biological target: T1, Pho4 (S. cerevisiae) (UniProt P07270)
# T1 sequence: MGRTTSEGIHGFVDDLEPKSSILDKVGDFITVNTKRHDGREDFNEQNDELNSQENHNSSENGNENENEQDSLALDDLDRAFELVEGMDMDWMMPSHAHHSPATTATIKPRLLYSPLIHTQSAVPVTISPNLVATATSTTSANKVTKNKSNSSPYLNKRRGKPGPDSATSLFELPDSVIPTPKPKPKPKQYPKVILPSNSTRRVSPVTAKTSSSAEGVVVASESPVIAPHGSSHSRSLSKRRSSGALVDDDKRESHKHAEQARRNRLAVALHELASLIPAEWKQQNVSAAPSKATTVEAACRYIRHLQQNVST
# Assay: relative binding free energy (BET-seq); higher = weaker binding
# Details: reference: library average
row,Sequence,relative binding free energy
1,GTTAACACGTGGGCTT,-0.628 kJ/mol
2,CGGGTCACGTGCGTGT,-0.126 kJ/mol
3,GAGCGCACGTGGTTTG,-0.251 kJ/mol
4,TGTTACACGTGGTTCT,0.209 kJ/mol
5,AGGTACACGTGCTGGT,0.293 kJ/mol
6,AGTAGCACGTGACTGT,0.293 kJ/mol
7,TTCGTCACGTGCGTCT,0.544 kJ/mol
8,TTGAGCACGTGAACGG,0.544 kJ/mol
9,CGTTTCACGTGGTGTT,0.418 kJ/mol
10,CGTTTCACGTGTTGCT,0.92 kJ/mol
11,AGGTGCACGTGTGCGC,-0.209 kJ/mol
12,TTAGACACGTGTTGGG,0.293 kJ/mol
13,GTGGTCACGTGAGAAG,1.55 kJ/mol
14,ATTATCACGTGACGTA,1.17 kJ/mol
15,TTGTTCACGTGGATGA,1.26 kJ/mol
16,TATGCCACGTGATTTT,0.795 kJ/mol
17,TTTGGCACGTGGCATA,-0.46 kJ/mol
18,TACGTCACGTGGTTGG,-0.0837 kJ/mol
19,ATTAGCACGTGGTTAA,-0.669 kJ/mol
20,AGGTTCACGTGCTGGT,1.05 kJ/mol
21,TGTCTCACGTGGACGG,0.502 kJ/mol
22,TTGATCACGTGTAACG,1.55 kJ/mol
23,AGTCGCACGTGAATGG,0.962 kJ/mol
24,TTTCGCACGTGGATTT,-0.628 kJ/mol
25,GGAGGCACGTGTAGGC,-0.335 kJ/mol

row,Sequence,relative binding free energy
1,GGTGTCACGTGTTATA,0.711 kJ/mol
2,ACGGTCACGTGTATTT,0.669 kJ/mol
3,GATTGCACGTGGAAGG,-0.0837 kJ/mol
4,GTGGGCACGTGATTTG,0.544 kJ/mol
5,TAATTCACGTGGGCCT,0.962 kJ/mol
6,GGCGTCACGTGAGGGG,1.17 kJ/mol
7,GCGTTCACGTGCTTGT,0.795 kJ/mol
8,CGGGACACGTGGCGGG,-0.418 kJ/mol
9,GTCGGCACGTGGAAAG,0.377 kJ/mol
10,CTTGGCACGTGGGGAT,-0.502 kJ/mol
11,TTCAGCACGTGGGTAG,-0.502 kJ/mol
12,TTGATCACGTGAGGCT,1.17 kJ/mol
13,TTGTCCACGTGATTTG,0.795 kJ/mol
14,TGGAGCACGTGAGGGT,0.544 kJ/mol
15,GGTTCCACGTGGCGAG,0.669 kJ/mol
16,TTGGTCACGTGCTAGA,0.586 kJ/mol
17,TATAACACGTGTATGG,-0.669 kJ/mol
18,TTGGCCACGTGTTGAG,-0.251 kJ/mol
19,GGATACACGTGGAGTT,0.377 kJ/mol
20,GTGTTCACGTGTTGGA,1.13 kJ/mol
21,GTGTGCACGTGAGAGG,1.55 kJ/mol
22,AATTTCACGTGTCAGT,1.8 kJ/mol
23,GTCGGCACGTGGGATG,-0.377 kJ/mol
24,GTTGGCACGTGCGAGC,-0.335 kJ/mol
25,ATGAGCACGTGGATTG,0.167 kJ/mol

row,Sequence,relative binding free energy
1,TTTAACACGTGTAGGA,0.0837 kJ/mol
2,TATGGCACGTGAAGCT,0.962 kJ/mol
3,GGGCACACGTGGGGTT,-0.0837 kJ/mol
4,TGGTACACGTGTGGCT,0.293 kJ/mol
5,TCATTCACGTGAGGTT,1.26 kJ/mol
6,AGGTGCACGTGGGCAG,-1.09 kJ/mol
7,GAAGTCACGTGCGTTG,0.293 kJ/mol
8,ATTGGCACGTGGAGTC,-0.586 kJ/mol
9,ATGGTCACGTGAGGCC,1.3 kJ/mol
10,GATTTCACGTGGTGAG,1.21 kJ/mol
11,TGAATCACGTGTGGTA,1.13 kJ/mol
12,TGGCCCACGTGGGTTA,-0.795 kJ/mol
13,GCGTACACGTGTTTTG,0.0418 kJ/mol
14,ACTGTCACGTGAGTGT,0.711 kJ/mol
15,CTCTGCACGTGAGTGT,0.628 kJ/mol
16,GACGTCACGTGGTTTT,0.293 kJ/mol
17,ATGATCACGTGTAGGT,0.628 kJ/mol
18,TTTTACACGTGGGAGG,0.544 kJ/mol
19,TAGACCACGTGGGTTA,-0.251 kJ/mol
20,GGCTGCACGTGTACGG,0.628 kJ/mol
21,CAGGGCACGTGAGTTT,0.377 kJ/mol
22,TCTGTCACGTGTGTGT,0.586 kJ/mol
23,GGTTTCACGTGTATGG,1.34 kJ/mol
24,CATAGCACGTGGGATG,-0.962 kJ/mol
25,ATACGCACGTGAGGGT,0.293 kJ/mol

row,Sequence,relative binding free energy
1,AGAGACACGTGTGGTT,-0.126 kJ/mol
2,ACTCGCACGTGTGGTT,-0.0837 kJ/mol
3,TGATACACGTGTCGTA,0.209 kJ/mol
4,TCAGGCACGTGTTGGA,0 kJ/mol
5,CTTTCCACGTGTGGGT,0.837 kJ/mol
6,GATGGCACGTGTAGGT,0.418 kJ/mol
7,CGGTCCACGTGGGGAT,-0.167 kJ/mol
8,AAAAACACGTGGGTTT,-0.0837 kJ/mol
9,GGGCACACGTGATTTG,1.05 kJ/mol
10,GCGGACACGTGGGATT,0 kJ/mol
11,GCAGTCACGTGGTGGA,0.0837 kJ/mol
12,GTTTACACGTGAAAGG,2.22 kJ/mol
13,TAGGCCACGTGGTAGG,-0.837 kJ/mol
14,CGGGGCACGTGGTCGA,-0.711 kJ/mol
15,ATTGCCACGTGTGGGA,-0.0418 kJ/mol
16,TTCGACACGTGTTTAG,0.669 kJ/mol
17,GGGGACACGTGAAGGG,0.962 kJ/mol
18,AGTGGCACGTGAGGCG,0.167 kJ/mol
19,GTAAACACGTGGGTTG,-0.502 kJ/mol
20,TGCGGCACGTGTCGGT,-0.669 kJ/mol
21,AATTTCACGTGGTGCA,1.09 kJ/mol
22,TTATTCACGTGAGTTT,1.59 kJ/mol
23,AGTGGCACGTGGCGGG,-0.418 kJ/mol
24,GTGGCCACGTGTTAGG,-0.0418 kJ/mol
25,GGTAGCACGTGTGTGC,0.167 kJ/mol

row,Sequence,relative binding free energy
1,TGGGTCACGTGGCTTC,0.377 kJ/mol
2,TTGTGCACGTGGCTGT,-0.628 kJ/mol
3,ATGTTCACGTGTTGTT,0.879 kJ/mol
4,AGTGGCACGTGTAGAT,-0.209 kJ/mol
5,TTTTACACGTGTGGCG,0.753 kJ/mol
6,CTGGGCACGTGACTGG,-0.586 kJ/mol
7,TGTTGCACGTGTTTAT,0.0418 kJ/mol
8,ATTTGCACGTGAGGTC,0.544 kJ/mol
9,TCGTGCACGTGATTGG,-0.0837 kJ/mol
10,GTGTGCACGTGCCTGG,-0.544 kJ/mol
11,GATTTCACGTGGCTTG,1.38 kJ/mol
12,CGGATCACGTGGAGTG,0 kJ/mol
13,TAGTGCACGTGTATAG,-0.209 kJ/mol
14,CGGCTCACGTGGGTGT,0.795 kJ/mol
15,TAGTTCACGTGCGTTG,0.795 kJ/mol
16,GAGTACACGTGGTAGG,0.377 kJ/mol
17,AGGTTCACGTGACGGC,1.63 kJ/mol
18,TTGGTCACGTGATTAG,1.17 kJ/mol
19,TTGTTCACGTGGCCTG,0.502 kJ/mol
20,AGTAGCACGTGGTGTG,-0.502 kJ/mol
21,TAGTGCACGTGGTTTT,0.0418 kJ/mol
22,TACGGCACGTGAGTGG,0.711 kJ/mol
23,AGCTTCACGTGTGCTT,1.26 kJ/mol
24,ATGTTCACGTGCGATT,1.05 kJ/mol
25,TGGATCACGTGAGATA,1.38 kJ/mol

row,Sequence,relative binding free energy
1,GGGGGCACGTGTCGGT,-0.167 kJ/mol
2,AATGGCACGTGGTTAG,-0.335 kJ/mol
3,TTGAGCACGTGTTCGG,-0.879 kJ/mol
4,GTCTTCACGTGAGAGT,1.46 kJ/mol
5,ATTTGCACGTGAGCAT,0.293 kJ/mol
6,ATGGGCACGTGCTGGA,-0.544 kJ/mol
7,GTGAGCACGTGTAAGG,0.418 kJ/mol
8,ATGGCCACGTGTGGAT,0.126 kJ/mol
9,CGTGGCACGTGCTTGG,-0.418 kJ/mol
10,GAATGCACGTGGAGGT,0.0837 kJ/mol
11,GAAGTCACGTGGTTTT,0.251 kJ/mol
12,ACTTGCACGTGGTTGA,-0.293 kJ/mol
13,AGAGCCACGTGGGGTA,-0.879 kJ/mol
14,AGCTTCACGTGGGAGT,0.92 kJ/mol
15,TGTCTCACGTGTAGGT,1 kJ/mol
16,GGGATCACGTGATCTA,1.97 kJ/mol
17,GGTTACACGTGGAGCG,0.46 kJ/mol
18,TTTAACACGTGTATTG,0.335 kJ/mol
19,GTGTGCACGTGTTGGG,0.377 kJ/mol
20,TGCGTCACGTGCTTTT,-0.418 kJ/mol
21,ATAGGCACGTGATTTG,-0.335 kJ/mol
